Experimental data: the supplement of paper PMC12217912
This is one part of the list. Sequences were assembled here from the parent chain. Inactive controls read about 0.05.

B1: TEV protease; numbered along this chain (parent)
chain: MGESLFKGPRDYNPISSSICHLTNESDGHTTSLYGIGFGPFIITNKHLFRRNNGTLVVQSLHGVFKVKDTTTLQQHLVDGRDMIIIRMPKDFPPFPQKLKFREPQREERICLVTTNFQTKSMSSMVSDTSCTFPSGDGIFWKHWIQTKDGQCGSPLVSTRDGFIVGIHSASNFTNTNNYFTSVPKNFMELLTNQEAQQWVSGWRLNADSVLWGGHKVFMVKPEEPFQPVKEATQL

Variants of: B1
Assay: raw area under fraction-flipped curve 0-4 h after induction (AUC4h, not background-subtracted), DNA-recorder readout of cleavage of the substrate (dimensionless); higher = more cleavage of the substrate by the protease variant
Details: temperature: 34 °C; time window: 0-4 h after rhamnose induction
Description: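 In vivo DNA recorder in E. coli TOP10(DE3) ΔrhaA at 34 °C. Each TEVp single-site mutant (parent TEVp 0) is paired with a single-site variant of the 7-mer TEVs (canonical ENLYFQ|S). The substrate sits between flexible linkers in a Bxb1-sfGFP-TEVs-SsrA fusion, so cleavage stabilises Bxb1 and speeds flipping of a recombination array, read by NGS. The value is the raw area under the fraction-flipped curve over 0-4 h after rhamnose induction (AUC4h), with ≥20 reads per time point. It is not background-subtracted; inactive controls average about 0.047.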
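Further: Bxb1 expression induced with 0.2% (w/v) L-rhamnose at OD600 near 0.5, cultures sampled hourly, flipped fraction per protease–substrate barcode pair counted by paired-end Illumina sequencing.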

| Variant | area with substrate ENAYFQS | area with substrate ENDYFQS | area with substrate ENEYFQS | area with substrate ENFYFQS | area with substrate ENGYFQS | area with substrate ENHYFQS | area with substrate ENKYFQS | area with substrate ENMYFQS | area with substrate ENNYFQS | area with substrate ENPYFQS | area with substrate ENQYFQS | area with substrate ENRYFQS | area with substrate ENSYFQS | area with substrate ENTYFQS | area with substrate ENVYFQS | area with substrate ENYYFQS | area with substrate ENCYFQS | area with substrate ENWYFQS | area with substrate ENIYFQS |
| --- | --- | --- | --- | --- | --- | --- | --- | --- | --- | --- | --- | --- | --- | --- | --- | --- | --- | --- | --- |
| MGESLFKGPRDYNPISSSICHLTNESDGHTTSLYGIGFGPFIITNKHLFRRNNGTLVVQSLHGVFKVKDTTTLQQHLVDGRDMIIIRMPKDFPPFPQKLKFREPQREERICLVTTNFQTKSMSSMVSDTSCTFPSGDGIFWKHWIQTKDGQCGSPLVSTRDGFIVGIHSASNFTNTNNYFTSVPKNFMEMLTNQEAQQWVSGWRLNADSVLWGGHKVFMVKPEEPFQPVKEATQL [L190M] | 0.0549 | 0.0567 | 0.0633 | 0.0644 | 0.0614 | 0.0547 | 0.0609 | 0.085 | 0.0375 | 0.0388 | 0.0665 | 0.0646 | 0.0513 | 0.0619 | 0.115 | 0.0561 | – | – | – |
| MGESLFKGPRDYNPISSSICHLTNESDGHTTSLYGIGFGPFIITNKHLFRRNNGTLVVQSLHGVFKVKDTTTLQQHLVDGRDMIIIRMPKDFPPFPQKLKFREPQREERICLVTTNFQTKSMSSMVSDTSCTFPSGDGIFWKHWIQTKDGQCGSPLVSTRDGFIVGIHSASNFTNTNNYFTSVPKNFMEYLTNQEAQQWVSGWRLNADSVLWGGHKVFMVKPEEPFQPVKEATQL [L190Y] | 0.0253 | 0.0864 | 0.0597 | 0.0517 | 0.0618 | 0.0356 | – | – | 0.0688 | 0.068 | 0.0648 | 0.0584 | 0.0626 | 0.0586 | – | 0.0644 | 0.0693 | 0.0649 | – |
| MGESLFKGPRDYNPISSSICHLTNESDGHTTSLYGIGFGPFIITNKHLFRRNNGTLVVQSLHGVFKVKDTTTLQQHLVDGRDMIIIRMPKDFPPFPQKLKFREPQREERICLVTTNFQTKSMSSMVSDTSCTFPSGDGIFWKHWIQTKDGQCGSPLVSTRDGFIVGIHSASNFTNTNNYFTSVPKNFMELLMNQEAQQWVSGWRLNADSVLWGGHKVFMVKPEEPFQPVKEATQL [T192M] | 0.0706 | 0.061 | 0.0637 | 0.0632 | 0.0551 | 0.0544 | 0.0629 | 0.0818 | 0.0711 | – | 0.0511 | 0.0575 | 0.0571 | 0.073 | 0.0764 | 0.0651 | – | – | 0.0739 |
| MGESLFKGPRDYNPISSSICHLTNESDGHTTSLYGIGFGPFIITNKHLFRRNNGTLVVQSLHGVFKVKDTTTLQQHLVDGRDMIIIRMPKDFPPFPQKLKFREPQREERICLVTTNFQTKSMSSMVSDTSCTFPSGDGIFWKHWIQTKDGQCGSPLVSTRDGFIVGIHSASNFTNTNNYFTSVPKNFMELKTNQEAQQWVSGWRLNADSVLWGGHKVFMVKPEEPFQPVKEATQL [L191K] | 0.0574 | 0.0596 | 0.05 | 0.0583 | 0.0502 | 0.0546 | – | 0.062 | 0.0528 | 0.0483 | 0.0521 | 0.0635 | 0.0524 | 0.0496 | – | 0.0401 | 0.0492 | 0.0493 | 0.0607 |
| MGESLFKGPRDYNPISSSICHLTNESDGHTTSLYGIGFGPFIITNKHLFRRNNGTLVVQSLHGVFKVKDTTTLQQHLVDGRDMIIIRMPKDFPPFPQKLKFREPQREERICLVTTNFQTKSMSSMVSDTSCTFPSGDGIFWKHWIQTKDGQCGSPLVSTRDGFIVGIHSASNFTNTNNYFTSVPKNFMELATNQEAQQWVSGWRLNADSVLWGGHKVFMVKPEEPFQPVKEATQL [L191A] | 0.0614 | 0.0609 | – | 0.044 | – | 0.0554 | 0.0589 | – | 0.0143 | 0.0582 | 0.0364 | 0.0732 | 0.0567 | – | – | 0.0691 | 0.0581 | – | 0.0768 |
| MGESLFKGPRDYNPISSSICHLTNESDGHTTSLYGIGFGPFIITNKHLFRRNNGTLVVQSLHGVFKVKDTTTLQQHLVDGRDMIIIRMPKDFPPFPQKLKFREPQREERICLVTTNFQTKSMSSMVSDTSCTFPSGDGIFWKHWIQTKDGQCGSPLVSTRDGFIVGIHSASNFTNTNNYFTSVPKNFMELFTNQEAQQWVSGWRLNADSVLWGGHKVFMVKPEEPFQPVKEATQL [L191F] | 0.0595 | 0.055 | 0.0642 | 0.0652 | 0.0765 | 0.0692 | 0.066 | – | 0.057 | 0.0848 | 0.066 | 0.0621 | 0.0626 | 0.0601 | 0.0663 | 0.0458 | 0.0627 | 0.0708 | 0.0982 |
| MGESLFKGPRDYNPISSSICHLTNESDGHTTSLYGIGFGPFIITNKHLFRRNNGTLVVQSLHGVFKVKDTTTLQQHLVDGRDMIIIRMPKDFPPFPQKLKFREPQREERICLVTTNFQTKSMSSMVSDTSCTFPSGDGIFWKHWIQTKDGQCGSPLVSTRDGFIVGIHSASNFTNTNNYFTSVPKNFMELLTNQEADQWVSGWRLNADSVLWGGHKVFMVKPEEPFQPVKEATQL [Q197D] | 0.0577 | 0.0647 | 0.0588 | 0.0561 | 0.0661 | – | – | – | 0.0585 | – | 0.0476 | 0.0528 | 0.0603 | 0.0793 | 0.0624 | – | 0.0707 | 0.0518 | – |
| MGESLFKGPRDYNPISSSICHLTNESDGHTTSLYGIGFGPFIITNKHLFRRNNGTLVVQSLHGVFKVKDTTTLQQHLVDGRDMIIIRMPKDFPPFPQKLKFREPQREERICLVTTNFQTKSMSSMVSDTSCTFPSGDGIFWKHWIQTKDGQCGSPLVSTRDGFIVGIHSASNFTNTNNYFTSVPKNFMELLTNQKAQQWVSGWRLNADSVLWGGHKVFMVKPEEPFQPVKEATQL [E195K] | 0.07 | 0.0693 | 0.0582 | 0.0607 | 0.0583 | – | 0.0637 | – | 0.0638 | 0.0553 | 0.0551 | 0.0558 | 0.046 | 0.0755 | 0.0675 | 0.0617 | 0.0636 | – | 0.0953 |
| MGESLFKGPRDYNPISSSICHLTNESDGHTTSLYGIGFGPFIITNKHLFRRNNGTLVVQSLHGVFKVKDTTTLQQHLVDGRDMIIIRMPKDFPPFPQKLKFREPQREERICLVTTNFQTKSMSSMVSDTSCTFPSGDGIFWKHWIQTKDGQCGSPLVSTRDGFIVGIHSASNFTNTNNYFTSVPKNFPELLTNQEAQQWVSGWRLNADSVLWGGHKVFMVKPEEPFQPVKEATQL [M188P] | 0.0471 | 0.0619 | 0.0675 | – | 0.0636 | 0.0628 | 0.0633 | – | 0.0422 | – | 0.0651 | 0.0511 | – | 0.0655 | – | 0.0549 | 0.0716 | – | – |
